Experimental data from the supplement of paper PMC3334620.
The full ranking holds about 33,000 sequences; the median of “E-score (-0.5 to 0.5)” is about -0.035, and the highest 2% start at about 0.34. The list shows a part of the results.

The sequences below were run against T1, Mot3 (UniProt P54785) (assay: PBM E-score (8-mer binding enrichment) (E-score (-0.5 to 0.5)); higher = stronger / more preferred TF binding; most listed sequences are background and not binding sites). Settings: protein concentration: 200 nM; construct: GST-full length.
T1 sequence: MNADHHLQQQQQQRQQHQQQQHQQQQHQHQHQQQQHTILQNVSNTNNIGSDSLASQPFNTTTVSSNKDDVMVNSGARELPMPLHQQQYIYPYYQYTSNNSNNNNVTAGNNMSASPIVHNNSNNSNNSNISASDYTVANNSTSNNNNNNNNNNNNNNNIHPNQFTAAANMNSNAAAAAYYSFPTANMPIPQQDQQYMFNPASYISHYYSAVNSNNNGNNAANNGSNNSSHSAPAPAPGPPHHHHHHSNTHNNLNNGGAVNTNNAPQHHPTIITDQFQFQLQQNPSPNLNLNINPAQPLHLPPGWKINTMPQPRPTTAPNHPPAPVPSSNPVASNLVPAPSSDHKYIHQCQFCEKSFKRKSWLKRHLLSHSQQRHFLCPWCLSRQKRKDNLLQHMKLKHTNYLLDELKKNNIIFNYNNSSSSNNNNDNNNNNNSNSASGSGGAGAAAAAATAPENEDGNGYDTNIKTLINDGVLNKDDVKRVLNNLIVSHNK
Method in brief: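 Masliner-normalised scans of fluorescent anti-GST signal were the basis for scoring. That signal came from GST-tagged yeast transcription factors applied at about 100-200 nM to double-stranded universal all-10-mer Agilent arrays on fresh or once-stripped slides. Each ungapped eight-base word, pooled with its reverse complement, received an E-score from the Universal PBM Analysis Suite.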

Sequence	PBM E-score
GGACGTGA	-0.213
AGTCTGTG	0.00931
AATGCTTC	-0.0775
GCGATGTA	0.245
AATCAGTA	0.185
AAGCTGCG	0.0174
CGGGCATA	-0.286
CGTTTGGA	-0.232
CTTTGGCC	0.0624
TAACCGGA	0.0658
CACTACAC	0.305
GTGGTTCA	-0.0314
ACCTTGAT	0.00535
TGATGTAA	0.281
AATGAGAC	-0.0839
TCAACCAA	0.0249
ACCGCCCA	-0.0736
AAGAGACA	0.0354
AACAGGGC	0.0406
GCGTCTCA	-0.0998
GCGAACAA	0.00895
CCGGGGTA	-0.212

Sequence	PBM E-score
CCAGGGGG	-0.259
AATGTGGG	-0.125
ACTGGCCC	-0.252
AACCAAAG	0.034
CCACGGCC	-0.233
CTCAAATC	-0.0697
CTTTTTTA	0.0642
CAACATAG	0.221
CAAACCTA	0.0865
AGCATTCC	-0.159
ACTGTGAG	0.0262
GCTTACCA	-0.0458
CTATCACA	0.073
TGATATCA	-0.108
ATTATGCG	0.0432
ATAGGATC	-0.108
TTACCGAA	0.0463
ACCTACTA	0.122
CAGCGAGA	-0.219
CCACGTAC	0.0592
ATGAGCAC	-0.0928
ACGTGAAG	0.04

Sequence	PBM E-score
CGGGGAAG	-0.278
AGCTATAA	-0.0249
ATTCTGGC	-0.101
AAAGAAAC	0.165
GATCCAGC	-0.228
AAAAATCC	0.144
CCATGATC	-0.251
ACCTGGCG	0.0197
TCAGTGAA	-0.124
ATCCACCC	-0.246
GCTAGGGA	-0.136
CAACTGCC	-0.187
GGCCTAAC	0.0201
CTAAAGAC	0.0438
ATCGTTCA	0.00043
AGATATAA	0.0221
CTTTTTCA	0.115
CCAAGACC	-0.252
CCCTAAGA	-0.172
ACTGATTG	-0.0873
AGGGAACG	-0.054
AACCTATT	0.0398

Sequence	PBM E-score
GAAGCTTC	-0.191
AAAAATGC	0.0116
GGTTAGCA	-0.126
GAATTCAA	-0.105
CCGAGGTA	-0.143
GGCATCCA	-0.0625
CAAAGTCA	0.00206
AGATGCAC	-0.249
CTATTCGA	-0.0163
CTTGCCGC	-0.231
CAGCACTA	-0.113
AGTATTCC	-0.0202
GCTCCGAA	-0.139
ACACTGAT	-0.138
GTGTTTGA	0.246
AAGTATTG	0.0601
GGAGCCGA	-0.26
CCCAGTTC	0.0538
TGTCCACA	0.1
TATTTGCA	0.216
